This experiment deals with misfolded tau seeds from postmortem Alzheimer's disease brain homogenates (human (endogenous in postmortem brain)). Nature of the experiment: cell-based or functional assay.

B1: recombinant full-length wild-type human tau isoform 0N4R (natural protein)
chain: not shown
As to B1, the “RT-QuIC (ThT fluorescence): t1/2 of seeded aggregation of 12 uM substrate with AD brain homogenate” value worked out at 37 h.

The values are drawn from article PMC9352240, “Selective Detection of Misfolded Tau From Postmortem Alzheimer’s Disease Brains” (Frontiers in Aging Neuroscience, 2022).
